The labels stand for the following.
B1: PhoQ; a variant is named by its letters at X, in order, P23837 (parent)
chain: MKKLLRLFFPLSLRVRFLLATAAVVLVLSLAYGMVALIGYSVSFDKTTFRLLRGESNLFYTLAKWENNKLHVELPENIDKQSPTMTLIYDENGQLLWAQRDVPWLMKMIQPDWLKSNGFHEIEADVNDTSLLLSGDHSIQQQLQEVREDDDDAEMTHSVAVNVYPATSRMPKLTIVVVDTIPVELKSSYMVWSWFIYVLSANLLLVIPLLWVAAWWSLRPIEALAKEVRELEEHNRELLNPATTRELTSLVRNLNRLLKSERERYDKYRTTLTDLTHSLKTPLXXLQXXLRSLRSEKMSVSDAEPVMLEQISRISQQIGYYLHRASMRGGTLLSRELHPVAPLLDNLTSALNKVYQRKGVNISLDISPEISFVGEQNDFVEVMGNVLDNACKYCLEFVEISARQTDEHLYIVVEDDGPGIPLSKREVIFDRGQRVDTLRPGQGVGLAVAREITEQYEGKIVAGESMLGGARMEVIFGRQHSAPKDE

Among the data in a collection of fitness landscapes (doi:10.1126/science.1257360) are enrichment ratio values, retold here.

This is one part of the list.

This experiment covers variants of B1. Put plainly: enrichment ratio after two sorts for PhoP signalling (ratio (wild type AVST 3.29)); higher = more functional. Conditions: with PhoP (E. coli).
VDFQ: the enrichment ratio was no more than 0.25. The same measure for EQDA: no more than 0.25; for EYNT: no more than 0.25.

In the case of AFVI, the enrichment ratio was no more than 0.25. With LQHQ the figure was no more than 0.25. The same measure for TGQY: 5.59. For the variant AKWD, the enrichment ratio was no more than 0.25. FKMK: the enrichment ratio is no more than 0.25. In the case of YQKP, the enrichment ratio was no more than 0.25. Take VRRK: the enrichment ratio was no more than 0.25. The same measure for DPVH: no more than 0.25. As for RCTD, the enrichment ratio was no more than 0.25. The same measure for PIPW: no more than 0.25; for TLDG: no more than 0.25. In the case of QLRS, the enrichment ratio is no more than 0.25.

For the variant RCDW, the enrichment ratio is no more than 0.25. With SAYH the figure was no more than 0.25; with AHCI, 4.38; with HYYC, no more than 0.25. As for WGFI, the enrichment ratio is no more than 0.25. Turning to VMYV, the enrichment ratio is no more than 0.25. The same measure for KGNG: no more than 0.25; for RHTQ: no more than 0.25.

Take LGNF: the enrichment ratio is no more than 0.25. With YIFR the figure was 0.278; with LHGN, no more than 0.25.

For WHYM, the enrichment ratio is no more than 0.25. With DEYF the figure was no more than 0.25; with HWKD, no more than 0.25; with RIYK, no more than 0.25. For RGGH, the enrichment ratio is no more than 0.25. Take YIPI: the enrichment ratio is no more than 0.25. For FPKQ, the enrichment ratio was no more than 0.25. The same measure for KACN: no more than 0.25; for EDLI: no more than 0.25; for YWCE: no more than 0.25. The same measure for PETK: no more than 0.25; for LDEN: no more than 0.25; for NNIL: no more than 0.25. Consider APSA, for which the enrichment ratio is no more than 0.25. The same measure for NGYS: no more than 0.25; for PIEK: no more than 0.25; for WCHK: no more than 0.25.

For the variant HAHR, the enrichment ratio is no more than 0.25.

Consider YIWQ, for which the enrichment ratio was no more than 0.25.

On to RYFH, for which the enrichment ratio was no more than 0.25.

For IQGS, the enrichment ratio was no more than 0.25. With GGFK the figure was no more than 0.25. For YRKM, the enrichment ratio is no more than 0.25. With YRPA the figure was no more than 0.25. The same measure for SFVS: no more than 0.25; for LADV: no more than 0.25; for NHEK: no more than 0.25.

Take KYAM: the enrichment ratio is no more than 0.25. The same measure for HSQA: no more than 0.25; for LPSF: no more than 0.25. For KHAK, the enrichment ratio is no more than 0.25. As to SYRI, the enrichment ratio is no more than 0.25. With ICFA, the enrichment ratio is no more than 0.25.

As to VACP, the enrichment ratio is no more than 0.25. On to VMFG, for which the enrichment ratio was no more than 0.25. In the case of FLSC, the enrichment ratio is no more than 0.25.

As for HQFR, the enrichment ratio is no more than 0.25.

For KSYW, the enrichment ratio is no more than 0.25. With QSVI, the enrichment ratio was no more than 0.25.

As to KPAC, the enrichment ratio was no more than 0.25.

As for TYDM, the enrichment ratio is no more than 0.25.

WPHC: the enrichment ratio is no more than 0.25. The same measure for EQTH: no more than 0.25; for RIEW: no more than 0.25.

In the case of SMCG, the enrichment ratio is 5.57. The same measure for TTWV: 1.9; for NGDL: no more than 0.25. IHIQ: the enrichment ratio is no more than 0.25. With EQVQ the figure was no more than 0.25; with MVTT, no more than 0.25; with YLYR, no more than 0.25. The same measure for GMIH: no more than 0.25; for FIKY: no more than 0.25. In the case of WRAP, the enrichment ratio is no more than 0.25. The same measure for GAPF: 0.621; for WTWK: no more than 0.25; for RWMS: no more than 0.25. The same measure for GTPC: no more than 0.25; for MADM: no more than 0.25; for GEAK: no more than 0.25. Take WLHR: the enrichment ratio was no more than 0.25. On to SPPC, for which the enrichment ratio was no more than 0.25. With WSDM, the enrichment ratio was no more than 0.25.

For HQWR, the enrichment ratio is no more than 0.25. Take NTDI: the enrichment ratio was no more than 0.25. Consider NPLC, for which the enrichment ratio was no more than 0.25. The same measure for NDFH: no more than 0.25; for TEMN: 0.333. With MRHK, the enrichment ratio was no more than 0.25. In the case of YQVK, the enrichment ratio is no more than 0.25. On to SDWK, for which the enrichment ratio is no more than 0.25. With WHAP, the enrichment ratio was no more than 0.25. As for TKWC, the enrichment ratio is no more than 0.25. With YLHI the figure was no more than 0.25; with RDPP, no more than 0.25; with LHDH, no more than 0.25. With FFFG, the enrichment ratio was no more than 0.25. Take NMHV: the enrichment ratio is no more than 0.25. The same measure for DTAL: no more than 0.25. The same measure for SDDR: no more than 0.25. On to ELPI, for which the enrichment ratio was no more than 0.25.

For the variant PWKV, the enrichment ratio was no more than 0.25. The same measure for SMMP: no more than 0.25; for MAYP: no more than 0.25. The same measure for LNTM: no more than 0.25. Consider DGNL, for which the enrichment ratio was no more than 0.25. With AFRF the figure was no more than 0.25.

In the case of MFQH, the enrichment ratio was no more than 0.25. In the case of WFHG, the enrichment ratio is no more than 0.25.

Regarding DCYK, the enrichment ratio is no more than 0.25.

Turning to KTHH, the enrichment ratio is no more than 0.25.

EDNG: the enrichment ratio is no more than 0.25. With PAKV, the enrichment ratio is no more than 0.25. With ACRF the figure was 7.81; with TVWD, no more than 0.25; with KAAH, no more than 0.25.

As to TMDA, the enrichment ratio is no more than 0.25. With DKAM, the enrichment ratio was no more than 0.25. With YQWK the figure was no more than 0.25; with GQCW, no more than 0.25; with YLGG, no more than 0.25.

Turning to NERV, the enrichment ratio was no more than 0.25. Turning to SALN, the enrichment ratio turned out to be 11.9.

For FQIQ, the enrichment ratio was no more than 0.25. The same measure for HVKF: no more than 0.25. The same measure for HTYR: no more than 0.25; for FNLV: 2.75. As to AHER, the enrichment ratio was no more than 0.25.

For the variant VNGM, the enrichment ratio worked out at 7.04. The same measure for QMQN: no more than 0.25. QGGL: the enrichment ratio is 7.49. Consider FFIM, for which the enrichment ratio was no more than 0.25.

Consider QNFV, for which the enrichment ratio is no more than 0.25. With SVMA the figure was 7.62; with FHHT, no more than 0.25.

With YNVF, the enrichment ratio is no more than 0.25. For DAMQ, the enrichment ratio was no more than 0.25. YFGH: the enrichment ratio was no more than 0.25. The same measure for MYFT: no more than 0.25.

Regarding QRNH, the enrichment ratio is no more than 0.25. With MVNS, the enrichment ratio was no more than 0.25. The same measure for DSTV: no more than 0.25; for PSWS: no more than 0.25. For RLYG, the enrichment ratio was no more than 0.25. As for YQIA, the enrichment ratio was no more than 0.25.

Turning to SWTV, the enrichment ratio was no more than 0.25. For the variant THCC, the enrichment ratio was 3.84. Consider TVCA, for which the enrichment ratio came out at 14.5. KCYW: the enrichment ratio was no more than 0.25.

Consider HAPQ, for which the enrichment ratio was no more than 0.25.

As to YRCV, the enrichment ratio is no more than 0.25. The same measure for RHDA: no more than 0.25. As for GSEW, the enrichment ratio is no more than 0.25. With SEKW the figure was no more than 0.25; with HWWH, no more than 0.25. RWHK: the enrichment ratio was no more than 0.25. Turning to GRWH, the enrichment ratio was no more than 0.25.

For the variant AIAK, the enrichment ratio was no more than 0.25. With DDMF, the enrichment ratio was no more than 0.25. In the case of LMQE, the enrichment ratio is no more than 0.25. Take NNGE: the enrichment ratio is no more than 0.25. With LNVR the figure was no more than 0.25; with QRSF, no more than 0.25. With SCAD the figure was no more than 0.25.

On to ASVV, for which the enrichment ratio came out at 14.5.

For HVLT, the enrichment ratio is no more than 0.25. With PTLQ the figure was no more than 0.25; with WSSV, no more than 0.25; with TKYP, no more than 0.25. Consider TKQI, for which the enrichment ratio is 17.5.

As for VWNR, the enrichment ratio was no more than 0.25. As to AMAN, the enrichment ratio was 0.326. As for SFVV, the enrichment ratio is no more than 0.25.

As to LGRK, the enrichment ratio was no more than 0.25. The same measure for TPLY: no more than 0.25; for GCTG: 9.76; for MIYS: 5.12. LQTE: the enrichment ratio is no more than 0.25. With PHWP the figure was no more than 0.25; with HLAV, no more than 0.25.

For YRAE, the enrichment ratio was no more than 0.25.

As to NHCK, the enrichment ratio is no more than 0.25.

In the case of YTLS, the enrichment ratio worked out at 4.88. With NEYK the figure was no more than 0.25.

Regarding VFTF, the enrichment ratio is no more than 0.25. The same measure for LACI: no more than 0.25; for WEMH: no more than 0.25; for WEQQ: no more than 0.25. The same measure for DNKK: no more than 0.25.
